# Hit rate of the full screen: of about 420,000 compounds, about 50,000 (12%) were called active. Inconclusive results, whose numbers are uncertain, are shown with a selection of clear calls. Calls follow the shape of the dose curve; as a rule, active = well fitted inhibition curve with a large enough effect; inconclusive = small, poorly fitted or top-dose-only effect; inactive = flat fitted curve, though single readings scatter. No potency is given beside an inconclusive call; the fits are too rough.
# Assay: qHTS for Inhibitors of human tyrosyl-DNA phosphodiesterase 1 (TDP1): qHTS in cells in presence of CPT; also: nearly all actives have a fitted effect of over 55% in size
# Details: chicken DT40 Tdp1-/-;hTDP1 cells + 20 nM CPT, ATP luminescence, 48 h; activity change, negative = growth inhibition: at 46.2 µM (top of the series) unless noted
# In short: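 Chicken DT40 Tdp1-/- cells stably complemented with human TDP1 were seeded at 400 cells/well in medium containing 20 nM camptothecin, exposed to pin-transferred compounds, and grown at 37 °C for at least 48 hr. Viability was read as ATP luminescence.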
# % is scaled to controls: 0 for no effect and ±100 for the full control effect; potency is read from the fitted curve at half-maximal effect; tags tell the direction and shape of the fitted curve.
SMILES,Potency,"activity change, negative = growth inhibition"
COC(=O)c1[nH]c2c(c1C)C(=O)CC(c1cccc(OC)c1)C2 (stereo unspecified),active: 1.46 µM,
O=C(NC1CCC(C(=O)O)CC1)OCc1ccccc1 (stereo unspecified),inactive,
CN(C)c1ccc(/C=C2\CCCCC2=O)cc1,active: 20 µM,
COc1ccc(C2C=C(C)Nc3nc4ccccc4n32)cc1 (stereo unspecified),inactive,
O=C1C=C(c2cccc(Cl)c2O)C[C@@H](c2ccc(F)cc2)C1,"inconclusive [inhibitor, partial curve]",
Cc1cc(C(=O)CN2C(=O)C(=O)N(C3CCCC3)C2=O)c(C)n1CCc1ccccc1,"inconclusive [inhibitor, single point]",
CCOc1ccc(-c2ncncc2-c2ccc(OC)cc2)c(O)c1,"inconclusive [inhibitor, single point]",
COc1cccc(CNC(=O)c2ccc3c(c2)N(C)C(=O)C2CCCCN32)c1 (stereo unspecified),"inconclusive [inhibitor, single point]",
COc1ccc(-c2nc3cc(F)ccc3cc2CN(C(=O)c2cccs2)C2CC2)cc1,"inconclusive [inhibitor, partial curve, poor fit]",
CC1(C)Cc2ccccc2-c2nc3ccccc3c(=O)n21,"inconclusive [inhibitor, single point]",
CCOc1ccc(CCNC(=O)Cc2ccc(NC3=NC4CS(=O)(=O)CC4S3)cc2)cc1 (stereo unspecified),inactive,
CCOc1ccc(-c2[nH]ncc2-c2ccc(OC)c(OC)c2)c(O)c1,active: 3.66 µM,
O=C(NCCC1CCCCN1S(=O)(=O)c1ccc(Cl)cc1)C(=O)NCc1ccncc1 (stereo unspecified),"inconclusive [inhibitor, single point]",
COc1ccc(N2N=NN(C(C)C)C2=C(Cl)c2nnnn2-c2ccc(OC)cc2)cc1,active: 5.8 µM,
CCN(CC)S(=O)(=O)c1cc(NC(=O)CCCOc2ccc(C(C)=O)cc2)ccc1C,"inconclusive [inhibitor, single point]",
O=c1c2ccccc2nc(/C=C/c2c[nH]c3ccccc23)n1CCO,active: 4.61 µM,
Cc1ccc(N(CC(=O)NCCSc2ccccn2)S(C)(=O)=O)cc1,"inconclusive [inhibitor, partial curve]",
COc1ccccc1C(=O)c1ccccc1C(=O)c1ccccc1,"inconclusive [inhibitor, partial curve, poor fit]",
O=C(CNC(=O)c1ccccc1)NCc1nc2ccccc2[nH]1,inactive,
CCn1cc(CNC(=O)c2cc(COc3ccc(F)cc3Cl)on2)cn1,active: 20.6 µM,
COc1ccccc1NC(=O)C1=C(C)Nc2nc(-c3ccco3)nn2C1c1ccccc1 (stereo unspecified),"inconclusive [inhibitor, single point]",
Cc1ccccc1NC(=O)c1c(NC(=O)c2ccncc2)sc2c1CCC(C(C)(C)C)C2 (stereo unspecified),active: 18.4 µM,
NC(=S)N=Nc1c(O)n(Cc2ccc(Br)cc2)c2ccccc12,active: 5.17 µM,
COc1ccc(C[C@H]2c3cc(O)c(OC)cc3CC[N+]2(C)[O-])cc1O (stereo partly specified),"inconclusive [inhibitor, single point]",

SMILES,Potency,"activity change, negative = growth inhibition"
CC(C)n1ncc2c(C(=O)NCc3cccnc3)cc(C3CC3)nc21,inactive,
Cc1oc2c(c1C(=O)N1CCC(C)CC1)C(=O)c1ccccc1C2=O,active: 7.31 µM,
CC1=C(C(=O)NC2CC(C)(C)Cc3c2cnn3-c2ccc(C)cc2)OCCO1 (stereo unspecified),"inconclusive [inhibitor, partial curve]",
CCCC(=O)Oc1ccccc1C1SCc2cc(C)c(C)cc2CS1,active: 18.4 µM,
O=C(N/N=C/c1ccncc1)c1ccc(OCc2ccccc2)cc1,inactive,
C[C@@]12CCC=C[C@H]1[C@H](c1ccc3ccccc3c1Br)N(Cc1ccccc1)C2=O,"inconclusive [inhibitor, single point]",
CNS(=O)(=O)c1cc(-c2nn3c(C)nnc3c3ccccc23)ccc1C,"inconclusive [inhibitor, single point]",
Cc1cc(C)c(NC(=O)C2=COCCO2)c(C)c1,inactive,
CN(C)c1ccc(/C=C2\C=Cc3ccccc32)c(Cl)c1,"inconclusive [inhibitor, single point]",
Cc1cc2c(cc1C)CSC(c1ccccc1O)SC2,"inconclusive [inhibitor, partial curve]",
CCN(CC(=O)NCc1ccc2c(c1)OCO2)S(=O)(=O)c1ccc(F)cc1,inactive,
CC1CCN(c2cc3c(cc2F)c(=O)c(S(=O)(=O)c2ccc(Cl)cc2)cn3C)CC1,"inconclusive [inhibitor, single point]",
S=C(NC1CCCCC1)N(CCc1ccccc1)CCc1ccccc1,"inconclusive [inhibitor, single point]",
CC(C)(C)C1CCC(C(=O)NCCc2ccc(S(N)(=O)=O)cc2)CC1 (stereo unspecified),"inconclusive [inhibitor, single point]",
Cc1ccc(-n2nnc(-c3cccnc3)n2)cc1,"inconclusive [inhibitor, single point]",
CC(Oc1ccc(Cl)cc1Cl)C(=O)NNC(=O)[C@@H]1CCCC[C@@H]1C(=O)O (stereo partly specified),"inconclusive [inhibitor, single point]",
COc1cc(C(=O)NCCC(=O)NCCCN2CCCCC2)cc(OC)c1OC,inactive,
O=C1Cn2nnc(-c3ccccc3)c2C2c3ccccc3CCN12 (stereo unspecified),"inconclusive [inhibitor, single point]",
COc1ccc(-c2csc(N(CCCN(C)C)C(=O)c3ccc(OC)c(OC)c3)n2)cc1,,inconclusive: -33% [inhibitor]
CN(C(=O)c1cc(COc2ccc(F)cc2Cl)on1)C1CCOC1 (stereo unspecified),"inconclusive [inhibitor, single point]",
CCN1CCN(CCOc2ccccc2-c2ccccc2)CC1,"inconclusive [inhibitor, single point]",
Cc1ccccc1OCc1cc(=O)n2c(-c3ccccc3)csc2n1,"inconclusive [inhibitor, single point]",
CCOC(=O)Nc1ccc2c(c1)N(C(=O)CCN1CCN3CCCC3C1)c1ccccc1CC2 (stereo unspecified),inactive,
COc1ccccc1N1CCN(CC(=O)c2c(C)[nH]c3ccccc23)CC1,"inconclusive [inhibitor, partial curve, poor fit]",

SMILES,Potency,"activity change, negative = growth inhibition"
CC1CCCN(CC(O)CN)C1 (stereo unspecified),inactive,
Cc1snc(SCc2c(F)cccc2Cl)c1C#N,"inconclusive [inhibitor, single point]",
Cc1ccc(NC(=O)c2nc[nH]c2C(=O)N2CCOCC2)c(C(=O)c2ccccc2)c1,"inconclusive [inhibitor, single point]",
CCOc1ccc(-c2cc3nc(C4CCN(C(=O)OC(C)(C)C)CC4)c(C(=O)Nc4ccc(C)c(F)c4)cn3n2)cc1,active: 9.2 µM,
CC(C)(C)OC(=O)[C@H](CCCCN)NC(=O)c1[nH]cnc1C(=O)N[C@@H](Cc1ccccc1)C(=O)OCc1ccccc1,"inconclusive [inhibitor, single point]",
Oc1ccc(N2CCN(Cc3cc4c(cc3Br)OCCO4)CC2)cc1,"inconclusive [inhibitor, single point]",
O=C1Nc2ccccc2/C1=N\N=C\c1ccc(O)c(O)c1,"inconclusive [inhibitor, single point]",
CCCOc1ccc(N2C(=O)CC(N3CCC(C(=O)OCC)CC3)C2=O)cc1 (stereo unspecified),"inconclusive [inhibitor, single point]",
COc1ccc2c(c1)CC(C(=O)Nc1cc(OC)c(OC)c(OC)c1)CO2 (stereo unspecified),"inconclusive [inhibitor, single point]",
Cc1cccc(CCNC(=O)CCc2c(C)nc3c(c(C)nn3-c3ccccc3)c2C)c1,active: 11.6 µM,
COc1ccc(OC)c(CNc2ncnc3onc(C)c23)c1,"inconclusive [inhibitor, partial curve]",
CC1Cc2ccccc2N1CC(=O)NC(c1ccccc1)c1ccccc1 (stereo unspecified),"inconclusive [inhibitor, single point]",
O=C(NC1CCCCCCC1)c1ccccc1O,"inconclusive [inhibitor, single point]",
O=C(NCCSc1ccc(Cl)cc1)c1ccco1,inactive,
Cc1cc2cc3c(cc2nc1SCc1ccccn1)OCCO3,"inconclusive [inhibitor, partial curve]",
CN(CC(=O)Nc1ccc(F)cc1)C(=O)c1cccc(NS(=O)(=O)c2ccccc2)c1,inactive,
Cc1ccc(S(=O)(=O)C2(C(=O)N3CCCC(C)C3)CC2)cc1 (stereo unspecified),,inconclusive: -32.8% [inhibitor]
COC(=O)c1ccccc1NC(=O)COc1ccc(S(=O)(=O)N2CCCC2)cc1C,"inconclusive [inhibitor, single point]",
CC(=O)c1ccc(-c2[nH]c3ccccc3c2CCN2C(=O)c3ccccc3C2=O)cc1,"inconclusive [inhibitor, single point]",
CO/N=C/C(=N\Nc1cc(OC)cc(OC)c1)C(=O)c1ccccc1,"inconclusive [inhibitor, partial curve]",
Cc1[nH]c2ccc(C(=O)N3CCC(C(N)=O)CC3)cc2c1C,inactive,
CC(=O)N1CC2(CC(c3ccc(Cl)cc3Cl)=NO2)CN1c1cccc(Cl)c1 (stereo unspecified),"inconclusive [inhibitor, single point]",
O=C(CCCn1c(=O)c2sccc2n(CC(=O)NCC2CCCO2)c1=O)NCc1ccco1 (stereo unspecified),inactive,
